Reference: PubChem BioAssay AID624173 (National Center for Advancing Translational Sciences (NCATS), 2012)
The whole screen tested about 410,000 compounds, of which about 490 (0.12%) were called active. Inconclusive means that the source gave no clear call. Such entries were picked first, then a sample of the others. The call rests on the fitted dose curve; in most records, active means well fitted inhibition curve with a large enough effect; inconclusive means small, poorly fitted or top-dose-only effect; inactive means flat fitted curve, though single readings scatter. Where the call is inconclusive, the potency comes from a doubtful curve fit.

Target: pyruvate kinase (Trypanosoma brucei) (UniProt Q57TT1)
Assay: qHTS of Trypanosoma Brucei Inhibitors; further: nearly all actives have a fitted effect of over 50% in size
Conditions: TbPYK enzyme, Kinase-Glo Plus ATP luminescence, 45 min; series mostly up to 76.8 µM
Method in brief: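 TbPYK + substrate in 50 mM TEA pH 7.2, 100 mM KCl, 10 mM MgCl2, 0.05% BSA, 0.01% Tween-20; cpd pinned; ADP 130 uM final; 45 min RT; Kinase-Glo Plus 10 min; luminescence endpoint.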
Potency means the concentration at half of the fitted maximal effect; tags describe the fitted curve by direction and shape.

Structure (SMILES)	Potency
CCCc1cc(-c2n[nH]c(=S)n2CC)cs1	active: 8.91 µM
COCCCNC(=S)Nc1ccc(N2CCCCC2)cc1	inconclusive: 44.7 µM [inhibitor, single point]
O=C1C=CC(=O)N1c1cccc(-c2ccccc2)c1	active: 5.01 µM
C=CCN1C(=O)/C(=C2/Sc3ccccc3N2CCCS(=O)(=O)O)SC1=S	inconclusive: 35.5 µM [inhibitor, partial curve]
CC1CC(C)CN(C(=O)CCc2nnc3ccc(N4CCCCC4)nn23)C1 (stereo unspecified)	inconclusive: 50.1 µM [inhibitor, single point]
O=C(NCc1n[nH]c(=S)n1-c1ccccc1)c1cccs1	inconclusive: 28.2 µM [inhibitor, partial curve, poor fit]
CCCCn1c(=S)[nH]c2cc(S(=O)(=O)N3CCOCC3)ccc21	inconclusive: 39.8 µM [inhibitor, partial curve, poor fit]
CC(CCc1ccco1)N(C)S(=O)(=O)c1csc(C(N)=O)c1 (stereo unspecified)	inactive
O=C1NCCN/C1=C\C(=O)c1cccc(Br)c1	inactive
O=C(NCc1ccc(Cl)cc1)N1CCN(C(=O)c2ccccc2)CC1	inactive
C=CCn1c(-c2cccn(Cc3cccc(Cl)c3)c2=O)n[nH]c1=S	active: 8.91 µM
COc1ccc(CSCCc2n[nH]c(=S)n2-c2ccccc2)cc1C	inconclusive: 15.8 µM [inhibitor, partial curve, poor fit]
COc1cccc(-n2c(CCn3nc(C)c([N+](=O)[O-])c3C)n[nH]c2=S)c1	inconclusive: 25.1 µM [inhibitor, single point]
COc1ccc(Cl)cc1NC(=O)CN1C(=O)CCS(=O)(=O)c2ccccc21	inactive
CCc1cc2c(=O)n(-c3ccccc3)c(=S)[nH]c2s1	inconclusive: 39.8 µM [inhibitor, single point]
NC(=S)N=Nc1ccc(NN=C(N)N)cc1	inconclusive: 28.2 µM [inhibitor, partial curve, poor fit]
Cc1ccccc1NS(=O)(=O)c1cc(C(=O)NCc2ccco2)ccc1C	inconclusive: 39.8 µM [inhibitor, single point]
O=C(CCc1nc2ccccc2c(=O)[nH]1)OCc1ccc(-c2ccccc2)cc1	inconclusive: 50.1 µM [inhibitor, single point]
CN(C)/C=C/C(=O)c1ccc(Cl)cc1Cl	inactive
S=c1[nH]ncn1/N=C/c1ccccc1	inconclusive: 25.1 µM [inhibitor, partial curve, poor fit]
O=C1/C(=C/c2ccco2)CCc2ccccc21	inconclusive: 35.5 µM [inhibitor, single point]
CCOC(=O)c1c(Cc2ccccc2)c[nH]c1C	inactive
Cc1cc2nnc(SC(C)C#N)n2c2ccccc12 (stereo unspecified)	inconclusive: 31.6 µM [inhibitor, single point]
COc1ccccc1-c1nc(CNC(=O)Nc2ccccc2)c(C)o1	inactive

Structure (SMILES)	Potency
COc1cc(-c2cc(OC)c3c(C)oc(C)c3c(=O)c2)ccc1OC(=O)c1ccccc1F	inconclusive: 28.2 µM [inhibitor, single point]
O=C(CNC(=O)c1ccc(Br)o1)NCC1CCCCC1	inactive
COC1(OC)N=C(NC(=O)Nc2ccccc2)C2(C#N)C(c3ccccc3)C12C#N (stereo unspecified)	inconclusive: 22.4 µM [inhibitor, partial curve]
CN(C)c1ccc(/C=C(\C#N)c2ccccn2)cc1	inconclusive: 31.6 µM [inhibitor, partial curve]
C=CCOc1ccc(/C=C2/C(=O)ON=C2C)cc1OC	inconclusive: 28.2 µM [inhibitor, partial curve, poor fit]
Cc1ccc(-c2noc(CSc3nnc(C)n3-c3ccc(C)cc3)n2)cc1	inactive
CC(C)OC(=O)CN1C(=O)S/C(=C/c2ccc(N3CCCCC3)o2)C1=O	inconclusive: 28.2 µM [inhibitor, partial curve]
Cc1c(Cl)cccc1NC(=O)C(=O)NCC(c1cccnc1)N1CCN(c2ccccc2)CC1 (stereo unspecified)	inactive
COC(=O)c1sccc1NC(=O)Nc1cccc(C)c1	inconclusive: 31.6 µM [inhibitor, partial curve]
S=c1[nH]cc(-c2ccccc2)n1-c1ccccc1	inconclusive: 6.31 µM [inhibitor, partial curve]
COc1ccccc1CNC(=O)c1cc2cc(C)ccc2n1C	inactive
CCCn1c2ccc(F)cc2c2nnc(SCCN3CCOCC3)nc21	inconclusive: 17.8 µM [inhibitor, partial curve]
N#Cc1cc2c([nH]c1=S)CCCCCC2	inconclusive: 28.2 µM [inhibitor, single point]
Nc1c(C(=O)Nc2ccc(F)cc2)sc(=S)n1-c1ccccc1F	inconclusive: 3.55 µM [inhibitor, full curve, poor fit]
Cn1c(SCC(=O)NC2CCCCC2)nnc1-c1cccc(N)c1	inconclusive: 31.6 µM [inhibitor, partial curve]
CC(C)(C)c1cn(-c2ccc(F)cc2)c(=S)[nH]1	inconclusive: 1.78 µM [inhibitor, full curve, poor fit]
COc1ccc(CNC(=O)C(=O)NCC(c2ccco2)S(=O)(=O)c2ccc(C)cc2)cc1 (stereo unspecified)	inactive
Cc1ccc(NC(=S)NNC(=S)Nc2cccc(C(F)(F)F)c2)cc1	inconclusive: 39.8 µM [inhibitor, single point]
c1c2c(cc3sc(N4CCCCC4)nc13)OCO2	inconclusive: 25.1 µM [inhibitor, partial curve]
O=C(CSc1nnc(-c2ccco2)c(-c2ccco2)n1)Nc1ccccc1	inconclusive: 35.5 µM [inhibitor, partial curve, poor fit]
O=C(O)C1Nc2c(C(F)(F)F)ccc(Cl)c2C2C=CCC12 (stereo unspecified)	inconclusive: 50.1 µM [inhibitor, single point]
COC(=O)C1=C(c2ccc(OC(F)(F)F)cc2)C[C@@H]2CC[C@H]1N2C(=O)NC1Cc2ccccc2C1	inconclusive: 25.1 µM [inhibitor, partial curve, poor fit]
O=C1c2ccccc2C(Nc2ccc3c(c2)OCO3)N1Cc1ccco1 (stereo unspecified)	inconclusive: 31.6 µM [inhibitor, partial curve, poor fit]
CC(C)c1nc(=S)n(-c2ccccc2)[nH]1	inconclusive: 17.8 µM [inhibitor, partial curve, poor fit]

Structure (SMILES)	Potency
COc1ccc(NC(=O)Nc2cccc(-c3cn4cccnc4n3)c2)cc1	inactive
Cc1ccc(OCc2n[nH]c(=S)n2-c2ccccc2)cc1C	inconclusive: 5.62 µM [inhibitor, partial curve, poor fit]
COc1ccc(NC(=O)C(C)n2c(C)c3cnn(-c4ccccc4)c(=O)c3c2C)cc1Cl (stereo unspecified)	inactive
O=c1[nH]c(O)c(/C=C2\C=NN=C2c2ccccc2)c(=O)[nH]1	inconclusive: 31.6 µM [inhibitor, partial curve, poor fit]
Cc1sc2ccc3sccc3c2[n+]1C	active: 8.91 µM
O=C(O)c1ccc(-c2nc3ccccc3[nH]2)cc1	inconclusive: 28.2 µM [inhibitor, single point]
C=CCn1c(-c2cccc(OCC)c2)n[nH]c1=S	inconclusive: 11.2 µM [inhibitor, partial curve]
Cc1cnc(C(=O)OCC(=O)c2c[nH]c3ccccc23)cn1	inactive
COC(=O)C1=C(C(=O)OC)C(c2ccc(OC)c(OC)c2)c2sc(=O)[nH]c2S1 (stereo unspecified)	inconclusive: 31.6 µM [inhibitor, single point]
COc1ccc(Cl)cc1NC(=O)CCCC(=O)c1ccccc1	inactive
O=c1c2ccccc2cnn1Cc1n[nH]c(=S)n1-c1ccc(F)c(Cl)c1	inconclusive: 15.8 µM [inhibitor, partial curve, poor fit]
COc1ccc(/C=N/n2c(-c3cc(C)[nH]n3)n[nH]c2=S)cc1	inconclusive: 2.24 µM [inhibitor, full curve]
O=[N+]([O-])c1cccc(/C=N/n2c(COc3ccccc3)n[nH]c2=S)c1	inconclusive: 0.398 µM [inhibitor, full curve, poor fit]
CC1=CC(=O)C(C(C)C)=CC1=NC(=O)c1ccc(C)cc1	inconclusive: 20 µM [inhibitor, partial curve, poor fit]
Cc1cc(-c2n[nH]c(=S)o2)c(C)n1-c1ccccc1	inconclusive: 3.55 µM [inhibitor, partial curve, poor fit]
NC(=O)c1sc2nc(-c3ccco3)ccc2c1N	inactive
O=C1NN(c2cccc(Br)c2)C(=O)/C1=C\c1ccccc1	inconclusive: 31.6 µM [inhibitor, partial curve, poor fit]
NS(=O)(=O)c1ccc(NC(=S)NNC(=O)c2cccs2)cc1	inconclusive: 15.8 µM [inhibitor, partial curve, poor fit]
COC(=O)/C=c1/sc2nc3ccccc3n2c1=O	inconclusive: 25.1 µM [inhibitor, partial curve]
N/C(=N\OC(=O)c1ccccc1Cl)c1ccccc1	inactive
COc1ccccc1CCNC(=O)C(=O)NCC(c1ccco1)S(=O)(=O)c1ccccc1 (stereo unspecified)	inactive
CCC(C)Sc1nnc(Cc2cc(=O)[nH]c(=O)[nH]2)n1-c1ccc(F)cc1 (stereo unspecified)	inconclusive: 39.8 µM [inhibitor, single point]
CCOC(=O)N1CCc2c(sc(NCc3sccc3C)c2C(=O)Nc2cc(Cl)ccc2OC)C1	inconclusive: 5.01 µM [inhibitor, partial curve, poor fit]
